The source gives no read counts; variants with many changes may rest on few reads.
B1: CPEB3 Ribozyme (parent)
chain: UAACAGGGGGCCACAGCAGAAGCGUUCACGUCGCAGCCCCUGUCAGAUUCUGGUGAAUCUGCGAAUUCUGCUGUAUAUCUC

Variants of: B1
Assay: self-cleavage, relative activity (ratio to wild type); higher = more cleavage; in vitro, sequencing
Summary of the method: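 CPEB3 self-cleaving ribozyme mutant libraries were made by rounds of error-prone PCR, barcoded, and transcribed in vitro with T7 RNA polymerase for 5 hours at 37°C. Cleavage occurred during transcription and a 15 min DNase I step before EDTA stop. RNAs were reverse transcribed with template switching and Illumina-sequenced, with DNA sequencing mapping barcodes to variants. Relative activity is the variant's cleaved/total read fraction divided by wild type's (minimum 5 reads), averaged across three batches.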

Variant | self-cleavage
U41C G42C A45G U72C U80C | 0.34
U41C U48C U49C | 0.18
U41C U49C A64U U66C | 0.08
U41C U51A A65G | 0.6
U41C U67G U74C | 0.46
U41C U66C G73A | 0.8
U41C U43C G61U U69A | 0.14
U41C U43A C71U | 0.58
U41C U66C U78A | 0.36
U41C G46A U51G U72C | 0.23
U41C U69G U80C | 0.73
U41C C68A U76A | 0.55
U41G U49C U54C A57G | 0.35
U41G U43A U51C A56G A64G | 0.07
G42A A45U A56U | 0.12
G42A A47G A57U U72A | 0.08
U41C U43A U48A G55A | 0.2
U41C U76C U78A | 1.28
U41G U48C A64G | 0.18
U41C U69C U74A C79U | 0.86
U41C U43C U72C U80C | 0.72
U41C U54C A56G G63A | 0.44
U41C U43A G61A U80C | 0.26
U41C U51C U74C U78C | 1.24

Variant | self-cleavage
U41C U43C U54C U69C | 0.16
U41C U54C A64G U67C | 0.12
U41C U69A U72A | 0.39
U41G A64G U80C | 0.59
U41C G42U U49C | 0.18
U41C G46U A47G | 0.41
U41C U51C A56G | 0.75
U41C U51C U66C | 0.54
U41G U43C U48C G53A U60A U69C | 0.19
U41C U51A U54C | 1.14
U41C U48C U58C | 0.39
U41C C59U U72A | 0.62
U41C U51C U72C U80A | 1.17
U41C U66C U67A | 0.36
U41C U43C U54A U80A | 0.58
U41C U48C A64G U74C A75G | 0.27
U41G U43C A45U C62U | 0.47
U41C U54A U67A U69C U78C | 0.44
U41C G73A U78C | 1.28
U41C U54C A65G | 0.39
U41C G42C U69C A77G | 0.1
U41C U48C U60G G70A | 0.24
U41C C68A U72A | 0.35
U41C C50A U66C U78C | 0.15

Variant | self-cleavage
U41C U51A U54A U67C C71A | 0.71
U41C C62A U69C G73A | 0.18
U41C U43C U76A U80C | 0.43
U41G U66C U72C | 0.2
U41C U54C A64G | 0.68
U41C U51C A56G A64G | 0.36
U41G U49C U67C | 0.15
U41C U51G A65G A75U | 0.31
U41C G46A U48G U69C U72C | 0.18
U41C U54C A57G U60C U76C | 0.11
U41C U54C G70U | 0.21
U41C U43C A47G | 0.36
U41C U54A A57G U69C | 0.46
U41C U49C C50A U80A | 1.16
U41C U54C A56G U69C | 0.16
U41C U72A G73U A77C | 1.31
U41C U43C A47G U49A | 0.16
U41C U60A G61U U66G U78A | 0
U41G U48A A64G U76A U80C | 0.09
U41G A47U U72A | 0.21
U41C U48C U74C | 1.08
U41C G55A C59A | 0.19
U41C U43C U80A | 0.44
U41C U48C U60A A65G | 0.27

Variant | self-cleavage
U41C U43G U48C U78C | 0.08
U41C U49C A56G U60C A75G U80A | 0.44
U41C U43A A64G G70U | 0.12
U41C U51A A75G | 1.15
U41C U54C U69C U80C | 0.39
U41G A77U U78C | 0.17
U41C U51C A57G G61C | 0.47
U41C U60C A64C | 0.19
U41C U43C U49C U74C | 0.27
U41C U43C U51C U54A A57G U67C U74A | 0.24
U41C G52A A56G A77G | 1.08
U41G G52A U67C | 0.21
U41C U58A C62A | 0.24
U41G U49C U51A A57G | 0.15
U41C G46C U67C U72C | 0.07
U41C U43C U69C | 0.35
U41C U51C U54C | 0.89
G42A A45C U72A U74C U76A | 0.33
U41C G53C U69A | 0.55
U41C G61A A77G | 0.43
U41C G55U U78A | 0.69
U41C U48C U54A U58C | 0.32
U41C U48C U78C | 0.8
U41G A45C C62A A64G U72C A75G U78C | 0.05

Variant | self-cleavage
U41G A45G U49A U67A | 0.14
U41C U49C A64G | 0.2
U41C C59A U72A | 0.32
U41C U69C A75G | 0.31
U41C U54A U60C | 0.8
U41C U58C U67C A75G | 0.4
U41C U54G A57G | 0.51
U41C U49A A64G U67C U74C | 0.47
U41C U67A U76C | 0.51
U41G U49C U58A | 0.2
U41C U58A U67C | 0.36
U41G U49C G61A | 0.08
U41C U49A A57G U67C | 0.16
G42A A45G U58C | 0.41
U41C U49A U69C | 0.33
U41C U51C U54G U58C U60C A64G | 0.29
U41C U67A G73A | 1.13
U41C U48G U78C | 0.34
U41C U78C U80C | 1.05
U41C U43C A57C A64U | 0.06
U41C G55U U67C | 0
U41C U49C U80A | 0.81
U41C U69C U80C | 0.53
U41C U43C U69A U76C | 0.2

Variant | self-cleavage
U41C U48G A56G U58C | 0.6
U41C U43A U49C U69C | 0.23
U41C U43A U72G | 0.44
U41C U54C A56G C59U U72A | 0.4
U41C U43A A57G | 1.17
U41C G52A U72A | 1.1
U41C U51C U54G U58C U60C | 0.35
U41C U54C A57G A65U | 0.1
U41C G55A U72C | 0.98
U41C G42A A64U | 0.27
U41C G42A U66A U72G U78C | 0.06
U41C U43A U78C | 0.66
G42A A65U U66G | 0.18
U41C U49C U54A G63U U67C U76C | 0.15
U41C U69G U76C | 0.89
U41C U51A U67G G70A U72A | 0.35
U41C C44U A65G U69A | 0.07
G42A A45U A64U | 0.23
U41C U60C U67C | 0.25
U41C U74A U80C | 1.25
U41C U43A G55U | 0.58
U41C U72C U76C | 1.11
U41C U43C U54C U78A | 0.16
U41C U49C U76C | 0.51

Variant | self-cleavage
U41G A64U U78C | 0.24
U41C U67C C81U | 0.26
U41C U72C U80C | 1.31
U41G U43A U48C G61U | 0.19
U41C U43C A75G | 0.43
U41G A45G U54C | 0.44
U41C U49C G73U A77U | 0.88
U41C U49A U60A A64U U78C | 0.1
U41G U54C U66C U69G U78C | 0.1
U41C U43C U51C A64U | 0.17
U41C U49C U66C | 0.19
U41C U48C A64U | 0.33
U41C G53C A64G | 0.71
U41C U43C A57G | 0.24
U41C U49C U60C U69C | 0.13
U41C U58C U76C | 0.75
U41G U48C A75U | 0.28
U41C U43C U51C | 0.46
U41C U60C U72G | 0.46
U41C U43C U72A A77G | 0.42
U41C U48C U60A U72G | 0.25
U41C U66C U69A | 0.64
U41C U66C U69G | 0.46

— the RNAGym collection of RNA variant scans (doi:10.1093/nar/gkz1192)
